System: experimental autoimmune encephalomyelitis
Assay type: in vivo, rat
Conditions: AT-EAE

For “Monovalent aKLH HC-ShK(1-35 Q16K) Ab: anti-KLH IgG2 antibody with [Lys16]ShK fused to the C-terminus of one heavy chain”, the “Effect on disease onset and severity” value was “delayed disease onset and caused dose-dependent reduction in disease severity”.

Source: US20120121591A1 (priority 2009, published 2012)
